According to patent publication US20250270269A1 (YUHAN, published 2025):

Molecular target: T1, human β-klotho (human, UniProt Q86Z14 1-1044)
T1 sequence (looked up): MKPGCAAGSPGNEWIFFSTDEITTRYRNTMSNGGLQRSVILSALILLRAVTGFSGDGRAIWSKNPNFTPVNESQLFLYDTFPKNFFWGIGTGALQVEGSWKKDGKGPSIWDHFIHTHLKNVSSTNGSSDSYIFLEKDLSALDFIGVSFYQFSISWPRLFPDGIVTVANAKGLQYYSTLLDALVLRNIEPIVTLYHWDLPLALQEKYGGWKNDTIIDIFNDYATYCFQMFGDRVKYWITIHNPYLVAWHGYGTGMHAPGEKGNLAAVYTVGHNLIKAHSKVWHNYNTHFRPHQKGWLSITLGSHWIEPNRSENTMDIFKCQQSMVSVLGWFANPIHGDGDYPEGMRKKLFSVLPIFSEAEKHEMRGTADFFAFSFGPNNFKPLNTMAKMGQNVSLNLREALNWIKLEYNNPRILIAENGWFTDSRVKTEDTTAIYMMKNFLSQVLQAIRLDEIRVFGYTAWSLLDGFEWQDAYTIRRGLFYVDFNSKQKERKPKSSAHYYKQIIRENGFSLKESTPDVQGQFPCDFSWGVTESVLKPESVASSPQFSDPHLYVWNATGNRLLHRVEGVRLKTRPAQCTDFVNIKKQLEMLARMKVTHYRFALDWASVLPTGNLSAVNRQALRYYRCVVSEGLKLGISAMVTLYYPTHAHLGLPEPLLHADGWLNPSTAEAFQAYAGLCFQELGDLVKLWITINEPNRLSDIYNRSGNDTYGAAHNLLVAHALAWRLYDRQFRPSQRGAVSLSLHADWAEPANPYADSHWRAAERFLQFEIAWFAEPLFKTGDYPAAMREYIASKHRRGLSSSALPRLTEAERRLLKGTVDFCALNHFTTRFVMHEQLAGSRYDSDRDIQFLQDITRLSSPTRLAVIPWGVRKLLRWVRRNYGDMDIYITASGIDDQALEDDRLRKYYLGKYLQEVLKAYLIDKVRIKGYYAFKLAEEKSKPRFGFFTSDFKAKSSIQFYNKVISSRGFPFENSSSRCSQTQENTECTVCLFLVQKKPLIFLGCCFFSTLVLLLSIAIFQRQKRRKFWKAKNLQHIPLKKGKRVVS
Assay: cell-based or functional assay

in vitro FGF21 activity (ERK phosphorylation, EC50 compared): 2 times higher activity than DFD1 and RGE (Amgen)
B1: Fc-FGF21 (Lilly) (Fc fusion)
chain: [gap - human IgG4 Fc with S228P F234A L235A (EU numbers)]GGGGSGGGGSGGGGSAHPIPDSSPLLQFGGQVRQRYLYTDDAQQTECHLEIREDGTVGCAADQSPESLLQLKALKPGVIQILGVKTSRFLCQRPDGALYGSLHFDPEACSFREDLKEDGYNVYQSEAHGLPLHLPGDKSPHRKPAPRGPARFLPLPGLPPALPEPPGILAPQPPDVGSSDPLRLVEPSQLRSPSFE
